# PubChem BioAssay AID485297 (National Center for Advancing Translational Sciences (NCATS), 2010)
# Hit rate of the full screen: of about 320,000 compounds, about 9,100 (2.8%) were called active. Inconclusive means that the source gave no clear call. Such entries were picked first, then a sample of the others. The call rests on the fitted dose curve; in most records, active means well fitted activation curve with a large enough effect; inconclusive means small, poorly fitted or top-dose-only effect; inactive means no such curve, though single readings can be large or run the other way. Potencies of inconclusive entries are left out as doubtful fits.
# Assay: qHTS Assay for Rab9 Promoter Activators; further: nearly all actives have a fitted effect of over 60% in size; on activation, negative = inhibition: % of control where 0% means no effect
# Settings: Huh7 Rab9 promoter-luciferase reporter, luminescence, 24 h; series mostly up to 9.22 µM; activation, negative = inhibition: at the top concentration
# Outline: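 Luminescence from Amplite-detected luciferase (10 minutes, ambient) reports Rab9 promoter activation. Before that, stable Rab9-luciferase Huh7 cells (1500/well, reduced-serum OP-MEM I plus 10% FBS) were exposed to compound for 24 hours at 37C.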
# Potency means the concentration at half of the fitted maximal effect; tags describe the fitted curve by direction and shape.
SMILES,Potency,"activation, negative = inhibition"
Clc1ccc(Nc2ncnc3c2cnn3-c2ccccc2)cc1,"inconclusive [activator, partial curve]",
Cc1ccc(OCc2nnc(SC(C)C(=O)O)n2-c2ccccc2)cc1 (stereo not drawn),,inactive: -2.09%
CCOc1ccc(OCC(=O)OC(C)C(=O)NC2CCCCC2C)cc1 (stereo not drawn),,inactive: -4.77%
CCCN(C(=O)COC(=O)CSc1ccc([N+](=O)[O-])cc1)C1CCS(=O)(=O)C1 (stereo not drawn),,inactive: -4.64%
CCN1C(=S)SC(=O)C1=C1C=C(C)N(CCO)C(C)=C1,active: 1.41 µM,
Cc1cccc(C(=O)Nc2cccc3cccnc23)c1,active: 3.16 µM,
CCN(CC)c1ccc(/C=C(/C#N)c2nc3ccccc3[nH]2)c(OC(C)C)c1,"inconclusive [activator, partial curve]",
O=C1/C(=C/c2cccc(F)c2)CSc2sccc21,,inactive: 0.954%
O=C(/C=C/c1ccccc1)Nc1cccnc1Oc1ccccc1F,"inconclusive [activator, single point]",
N#Cc1c(/N=C/c2cccs2)sc2c1CCC2,active: 2 µM,
CCSc1nnc(NC(=O)NC2CCCCC2)s1,"inconclusive [activator, single point]",
CNc1nc(-c2c(C)n(C)c3ccc(OC)cc23)cs1,"inconclusive [activator, single point]",
O=C(c1cc(-c2ccc(F)cc2)on1)N1CCCCCC1,active: 1.41 µM,
O=C(c1ccccc1)c1cc2ccccc2o1,"inconclusive [activator, partial curve]",
COc1ccc2c(CC(=O)N3CCc4ccccc43)coc2c1,active: 3.16 µM,
Cc1nc(NC(=O)c2cncc(Br)c2)ccc1Br,"inconclusive [activator, partial curve]",
Cc1ccc(NC(=S)Nc2ccccn2)cc1C,"inconclusive [activator, partial curve]",
Cc1ccc(NCCC(=O)c2cccs2)cc1,active: 2.82 µM,
Cc1ccc(Nc2nc(N)nc(CSc3nnc(C)s3)n2)cc1,active: 4.47 µM,
COc1ccc(CNC(=O)Nc2ccccc2)cc1,active: 3.55 µM,
O=C(COC(=O)c1ccc(NS(=O)(=O)c2ccc(F)c(F)c2)cc1)NCC1CCCO1 (stereo not drawn),,inactive: -1.84%
COc1ccc(OCCOc2ccccc2[N+](=O)[O-])cc1,"inconclusive [activator, single point]",
COC(=O)CCn1nc(-c2ccc(C)cc2)c2ccccc2c1=O,,inactive: -14.8%
Cc1ccnc(NC(=O)c2sc3cc(Cl)ccc3c2Cl)c1,active: 0.631 µM,
COc1ccc(COc2cccnc2N)cc1,"inconclusive [activator, partial curve]",
Cc1nc2ccc(NC(=O)CS(=O)(=O)c3ccccc3)cc2s1,"inconclusive [activator, partial curve]",
CCOC(=O)c1sc2nc3n(c(=O)c2c1C)CCCCC3,"inconclusive [activator, partial curve]",

SMILES,Potency,"activation, negative = inhibition"
Cc1c(C(=O)Nc2ccc(Cl)cc2)c2ccccn2c1CCc1ccncc1,"inconclusive [activator, single point]",
Cc1ccc(O)c(NC(=O)C2CC(c3cccc(Br)c3)=NO2)c1 (stereo not drawn),,inactive: 3.12%
CCCCNC(=O)CSc1nc2cc3c(cc2c(=O)n1Cc1ccco1)OCO3,,inactive: 2.89%
Cc1ccc2[nH]c(-c3ccccc3)cc(=O)c2c1,"inconclusive [activator, full curve]",
COc1cc(C)ccc1OCc1cc(C(=O)N2CCC(c3ccc(F)cc3)C2)no1 (stereo not drawn),active: 2.24 µM,
Cc1ccc(N2C(=O)/C(=C\c3ccco3)SC2=S)cc1,"inconclusive [activator, single point]",
CCCCC1CCC(c2nc(-c3ccccn3)no2)CC1 (stereo not drawn),"inconclusive [activator, full curve]",
Cc1cc(N2CCCCC2)n2nc(C)c(-c3ccccc3)c2n1,,inactive: 7.88%
COc1ccc(/C(C)=N\Nc2nc(-c3ccc(Cl)cc3)cc(C(F)(F)F)n2)cc1OC,,inactive: -4.66%
Cc1ccc(Cc2cnc(NC(=O)C3CCCO3)s2)cc1 (stereo not drawn),active: 1.26 µM,
CC(C)c1ccc(OCc2nc(-c3ccccn3)no2)c(Br)c1,active: 0.447 µM,
Cc1ccn(-c2ccc(NC(=O)c3cccs3)cc2)n1,active: 0.631 µM,
O=C(N/N=C/c1cc2c(cc1Br)OCO2)C1COc2ccccc2O1 (stereo not drawn),"inconclusive [activator, single point]",
Cc1ccc(NC(=O)c2cncc(Br)c2)c(O)c1,"inconclusive [activator, single point]",
CCOC(=O)C1CCN(C(=O)C2CCN(S(=O)(=O)c3cc(Cl)ccc3OCC)CC2)CC1,,inactive: -0.829%
CC(C)c1ccc(NC(=O)N2CCOCC2)cc1,"inconclusive [activator, partial curve]",
O=C(COC(=O)c1ccc(Cl)nc1)Nc1ncc(Cl)cc1Cl,"inconclusive [activator, single point]",
CC(=O)Nn1cnc2c(c1=O)C1(CCCC1)Cc1ccccc1-2,"inconclusive [activator, single point]",
CCOC(=O)C1CCN(C(=O)c2cc3cc(Cl)ccc3[nH]2)CC1,"inconclusive [activator, single point]",
O=C(N/N=C1\CCc2ccccc21)c1ccc(O)cc1,active: 2.82 µM,
COc1ccc(C(=O)/C=C/c2ccccc2)c(OC)c1,"inconclusive [activator, partial curve]",
O=C(Nc1nc2ccccc2[nH]1)C1CCC1,active: 2.82 µM,
CC1(C)CC(NC(=O)c2ccc(Cl)c(S(=O)(=O)N(Cc3ccccc3)c3ccccc3)c2)CC(C)(C)N1,,inactive: -1.55%
COc1ccc(-c2nc(-c3cccc(C)c3)no2)cc1OC,active: 4.47 µM,
CCS(=O)(=O)c1ccc2oc(Nc3ccc(OC)cc3)nc2c1,,inactive: 24.6%
COc1ccccc1N1CCN(C(=O)CSc2ncnc3c2cnn3-c2ccc(C)c(C)c2)CC1,"inconclusive [activator, single point]",
